What all share (experiment): uncleaved DNA left, log2 of reads against the no-enzyme library (log2 ratio); higher = less cleavage (more negative = more Rep cleavage of the k-mer); sequences stand for … in CTCGTCCG…ACCGGAGA
For test [1], the system named is T1, Rep nickase domain of Muscovy duck circovirus.
T1 sequence (protein, residues 1-111, tag omitted): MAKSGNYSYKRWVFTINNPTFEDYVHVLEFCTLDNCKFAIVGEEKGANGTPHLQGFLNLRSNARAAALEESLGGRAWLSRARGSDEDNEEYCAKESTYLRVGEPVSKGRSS
As for the experimental part: (§1)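 A pool of 90-nt single-stranded DNAs with seven random bases just before the constant AC of the nick site (name = the seven bases) was cut by 3 µM recombinant His6-SUMO-tagged Rep nickase domain (300 nM DNA, 50 mM HEPES pH 8.0, 50 mM NaCl, 1 mM MnCl2, 1 h, 37 °C, three replicates). Uncut DNA was amplified and sequenced.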

Test [2] concerns T2, Rep nickase domain of banana bunchy top virus.
T2 sequence (protein, residues 1-94, tag omitted): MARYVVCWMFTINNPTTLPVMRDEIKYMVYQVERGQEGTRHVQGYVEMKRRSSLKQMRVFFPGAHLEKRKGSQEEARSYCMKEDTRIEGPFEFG
As for the experimental part:
as §1

For test [3], the system named is T3, Rep nickase domain of cabbage leaf curl virus.
T3 sequence (protein, residues 1-116, tag omitted): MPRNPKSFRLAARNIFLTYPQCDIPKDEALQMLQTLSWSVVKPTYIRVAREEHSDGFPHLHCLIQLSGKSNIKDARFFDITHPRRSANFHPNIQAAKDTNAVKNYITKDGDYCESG
As to the method:
as §1

Test [4] has as its system T4, Rep nickase domain of chickpea chlorotic dwarf virus.
T4 sequence (protein, residues 1-124, tag omitted): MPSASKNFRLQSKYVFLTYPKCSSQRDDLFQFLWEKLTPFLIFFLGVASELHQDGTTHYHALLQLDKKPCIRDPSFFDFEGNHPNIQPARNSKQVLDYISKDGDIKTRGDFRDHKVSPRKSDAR
As to the method:
as §1

Test [5] deals with T5, Rep nickase domain of faba bean necrotic yellows virus.
T5 sequence (protein, residues 1-98, tag omitted): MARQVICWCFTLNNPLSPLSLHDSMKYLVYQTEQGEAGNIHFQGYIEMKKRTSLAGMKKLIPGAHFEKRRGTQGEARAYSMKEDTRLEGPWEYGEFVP
As to the method: as §1
The test system of test [6] is T6, Rep nickase domain of maize striate mosaic virus.
T6 sequence (protein, residues 1-117, tag omitted): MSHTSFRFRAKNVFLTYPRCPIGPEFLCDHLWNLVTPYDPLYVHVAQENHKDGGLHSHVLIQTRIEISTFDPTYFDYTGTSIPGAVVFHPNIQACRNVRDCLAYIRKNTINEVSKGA
As for the experimental part: as §1
The test system of test [7] is T7, Rep nickase domain of porcine circovirus 2.
T7 sequence (protein, residues 2-116, tag omitted): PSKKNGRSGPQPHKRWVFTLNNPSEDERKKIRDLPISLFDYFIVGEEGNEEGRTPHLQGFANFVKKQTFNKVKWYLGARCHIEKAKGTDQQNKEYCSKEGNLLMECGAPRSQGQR
As for the experimental part: as §1
For test [8], the system named is T8, Rep nickase domain of tomato golden mosaic virus.
T8 sequence (protein, residues 1-124, tag omitted): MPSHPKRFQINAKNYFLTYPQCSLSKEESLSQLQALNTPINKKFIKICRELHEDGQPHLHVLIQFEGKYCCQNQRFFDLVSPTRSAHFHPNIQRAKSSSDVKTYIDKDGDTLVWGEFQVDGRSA
As for the experimental part: as §1
Test [9] has as its system T9, Rep nickase domain of tomato yellow leaf curl virus.
T9 sequence (protein, residues 1-136, tag omitted): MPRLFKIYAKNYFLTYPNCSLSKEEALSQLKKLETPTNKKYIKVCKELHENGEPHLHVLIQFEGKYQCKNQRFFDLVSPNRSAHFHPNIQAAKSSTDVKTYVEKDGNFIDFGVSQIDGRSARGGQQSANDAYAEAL
As to the method: as §1
Test [10] deals with T10, Rep nickase domain of wheat dwarf virus.
T10 sequence (protein, residues 1-137, tag omitted): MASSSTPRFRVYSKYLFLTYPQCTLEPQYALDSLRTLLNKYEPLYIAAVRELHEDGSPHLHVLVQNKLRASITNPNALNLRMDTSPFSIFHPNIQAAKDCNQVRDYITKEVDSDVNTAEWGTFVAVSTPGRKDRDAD
As for the experimental part:
as §1

The list shows a part of the results. Each Rep nickase domain was tested in vitro on the same pool of single strands for 1 h at 37 °C with 3 µM enzyme; only the middle of the 90-letter strands is printed. A value is the log2 ratio of uncut reads to the pool without enzyme; the lower, the more was cut; hits are not called. The scaling is to total reads; values above 0 arise when much of the pool is cut.

As for CGTGGCA, the “uncleaved DNA left (log2)” value in test [1] is 0.061; in [2], 0.132; in [3], 0.162; in test [4], 0.262; in [5], -0.0466; in test [6], -0.136. The “uncleaved DNA left (log2)” value was 0.00927 in test [7], 0.0873 in test [8], 0.182 in test [9] and 0.0162 in [10].

Regarding CAGGAGT, the “uncleaved DNA left (log2)” value was 0.159 in test [1]; -0.125 in test [2]; 0.158 in test [3]; 1.21 in [4]; -0.0831 in [5]; 1.42 in test [6]. Also, the “uncleaved DNA left (log2)” value in [7] was 0.0146; in [8], -0.0684; in [9] it was -0.129; in test [10] it was -0.0144.

For the sequence AAATGCT, the “uncleaved DNA left (log2)” value was -3.76 in [1]; -0.166 in test [2]; -4.43 in test [3]; -3.56 in test [4]; -0.0335 in test [5]; -3.49 in test [6]. Moreover, the “uncleaved DNA left (log2)” value in test [7] was -4.34; in test [8], -3.9; in test [9], -0.354; in test [10], -3.86.

With CGCTCCG, the “uncleaved DNA left (log2)” value in test [1] was -0.0454; in test [2], -0.207; in test [3], -0.915; in test [4] it was -0.295; in test [5], -0.225; in test [6], -0.979. Also, the “uncleaved DNA left (log2)” value in test [7] is -0.0514; in [8], -0.185; in test [9], -0.124; in [10], -0.156.

For the sequence TCGTTGT, the “uncleaved DNA left (log2)” value was -0.212 in test [1]; -0.256 in test [2]; -0.25 in test [3]; -0.67 in [4]; -0.189 in test [5]; -0.953 in test [6]. Also, the “uncleaved DNA left (log2)” value in test [7] is -2.46; in test [8], -0.134; in [9], -0.0766; in test [10] it was -0.196.

Turning to TAGTTAT, the “uncleaved DNA left (log2)” value in test [1] is -1.83; in test [2] it was -2.57; in [3], -1.09; in test [4], -2.25; in [5], -1.31; in test [6], 0.43. The “uncleaved DNA left (log2)” value in test [7] was -3.97; in test [8], -0.0688; in test [9] it was 0.0348; in test [10], -0.129.

GAGTGAG: the “uncleaved DNA left (log2)” value in test [1] was -0.0917; in test [2], -0.176; in test [3], -0.539; in [4], -0.255; in [5] it was 0.0498; in [6] it was -0.583. In addition, the “uncleaved DNA left (log2)” value in [7] was found to be 0.0287; in test [8] it was 0.0032; in [9], 0.0225; in test [10], 0.0299.

Turning to TGCAAAA, the “uncleaved DNA left (log2)” value was 0.0929 in test [1]; 0.176 in test [2]; 0.101 in [3]; 0.153 in [4]; 0.129 in test [5]; -0.515 in test [6]. For the same sequence, the “uncleaved DNA left (log2)” value in test [7] is -0.00659; in test [8] it was 0.000169; in [9] it was 0.0446; in test [10], 0.0543.
